Measurements: paper PMC6303091
No constants are given. Whether binding was seen depends on the method and setting. Some entries that bind do so weakly or less than the wild type.

Protein sequences, listed by entry. Tags and fused reporters are not part of them.
UniProt P93830: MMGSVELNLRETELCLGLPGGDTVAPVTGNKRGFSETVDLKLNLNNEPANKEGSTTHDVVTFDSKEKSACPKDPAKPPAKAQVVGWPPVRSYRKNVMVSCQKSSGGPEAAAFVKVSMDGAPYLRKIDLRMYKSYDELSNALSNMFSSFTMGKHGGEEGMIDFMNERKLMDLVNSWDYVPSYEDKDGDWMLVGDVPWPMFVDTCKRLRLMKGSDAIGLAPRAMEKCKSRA
UniProt Q9SZJ6: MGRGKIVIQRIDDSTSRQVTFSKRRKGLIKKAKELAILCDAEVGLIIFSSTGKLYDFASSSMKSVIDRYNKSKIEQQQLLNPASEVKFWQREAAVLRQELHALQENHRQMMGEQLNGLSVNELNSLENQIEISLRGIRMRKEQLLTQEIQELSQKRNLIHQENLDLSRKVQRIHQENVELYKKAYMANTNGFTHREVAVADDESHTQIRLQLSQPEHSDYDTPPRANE
UniProt Q9SV55: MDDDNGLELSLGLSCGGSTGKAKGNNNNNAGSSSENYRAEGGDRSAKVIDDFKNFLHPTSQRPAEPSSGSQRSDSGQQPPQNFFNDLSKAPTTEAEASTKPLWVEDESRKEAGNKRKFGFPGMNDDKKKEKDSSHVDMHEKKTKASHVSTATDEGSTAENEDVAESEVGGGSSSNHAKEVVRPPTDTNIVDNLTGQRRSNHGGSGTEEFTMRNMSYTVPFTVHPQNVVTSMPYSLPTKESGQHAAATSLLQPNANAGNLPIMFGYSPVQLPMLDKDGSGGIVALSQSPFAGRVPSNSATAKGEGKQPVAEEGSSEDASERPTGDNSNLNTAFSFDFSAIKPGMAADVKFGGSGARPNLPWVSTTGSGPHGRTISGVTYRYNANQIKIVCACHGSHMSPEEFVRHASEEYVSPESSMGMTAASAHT
UniProt Q7XA73: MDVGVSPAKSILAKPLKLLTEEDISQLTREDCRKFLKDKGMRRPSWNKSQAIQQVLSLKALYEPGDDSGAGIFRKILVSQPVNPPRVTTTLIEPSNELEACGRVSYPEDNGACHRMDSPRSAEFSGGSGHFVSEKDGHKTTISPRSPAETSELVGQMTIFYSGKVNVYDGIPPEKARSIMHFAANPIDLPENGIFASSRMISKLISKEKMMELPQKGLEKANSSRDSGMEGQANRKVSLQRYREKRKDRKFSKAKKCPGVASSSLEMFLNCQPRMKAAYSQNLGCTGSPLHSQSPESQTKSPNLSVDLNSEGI

T1: TOPLESS amino-terminal region (TPL-N), bait (A. thaliana) (UniProt Q94AI7)
T1 sequence: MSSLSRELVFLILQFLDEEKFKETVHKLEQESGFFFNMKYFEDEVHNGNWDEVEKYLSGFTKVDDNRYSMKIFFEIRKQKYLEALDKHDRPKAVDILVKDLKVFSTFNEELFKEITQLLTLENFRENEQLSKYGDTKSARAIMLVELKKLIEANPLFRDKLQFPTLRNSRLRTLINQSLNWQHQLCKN

B1: IAA27 (AT4G29080), library prey (protein, UniProt Q9ZSY8 1-305)
chain: MSVSVAAEHDYIGLSEFPTMEATTMSDKTKTRDNNNGLNFKATELRLGLPGSESPERVDSRFLALNKSSCPVSGAKRVFSDAINDSNKWVFSPGSTTATGDVGSGSGPRTSVVKDGKSTTFTKPAVPVKEKKSSATAPASKAQVVGWPPIRSFRKNSMASSQSQKPGNNSETEEAEAKSGPEQPCLYVKVSMEGAPYLRKIDLKTYKSYLELSSALEKMFSCFTIGQFGSHGGCGRDGLNESRLTDLLRGSEYVVTYEDKDSDWMLVGDVPWEMFICSCKKLRIMKSSEAIGLAPRVMEKCRSRN
B2: AT3G19860, library prey (protein, UniProt Q9LT23 1-337)
chain: MGIRENGIMLVSRERERARRLENRESIFAEPPCLLLAHRISPSPSILPAEEEVMDVSARKSQKAGREKLRREKLNEHFVELGNVLDPERPKNDKATILTDTVQLLKELTSEVNKLKSEYTALTDESRELTQEKNDLREEKTSLKSDIENLNLQYQQRLRSMSPWGAAMDHTVMMAPPPSFPYPMPIAMPPGSIPMHPSMPSYTYFGNQNPSMIPAPCPTYMPYMPPNTVVEQQSVHIPQNPGNRSREPRAKVSRESRSEKAEDSNEVATQLELKTPGSTSDKDTLQRPEKTKRCKRNNNNNSIEESSHSSKCSSSPSVRDHSSSSSVAGGQKPDDAK
B3: IAA10 (AT1G04100), library prey (protein, UniProt Q38828 1-261)
chain: MNGLQEVCSSSGSVMIGLPAEEDENAAHSSEDSSCPDESVSETELDLALGLSIGRRKVRSSLSSSSSSLTRESGTKRSADSSPAAASNATRQVAVGWPPLRTYRINSLVNQAKSLATEGGLSSGIQKETTKSVVVAAKNDDACFIKSSRTSMLVKVTMDGVIIGRKVDLNALDSYAALEKTLDLMFFQIPSPVTRSNTQGYKTIKETCTSKLLDGSSEYIITYQDKDGDWMLVGDVPWQMFLGSVTRLRIMKTSIGAGVGK
B4: IAA18 (AT1G51950), library prey (protein, UniProt O24408 1-267)
chain: MEGYSRNGEISPKLLDLMIPQERRNWFHDEKNSVFKTEEKKLELKLGPPGEEDDDESMIRHMKKEPKDKSILSLAGKYFSPSSTKTTSHKRTAPGPVVGWPPVRSFRKNLASGSSSKLGNDSTTSNGVTLKNQKCDAAAKTTEPKRQGGMFVKINMYGVPIGRKVDLSAHNSYEQLSFTVDKLFRGLLAAQRDFPSSIEDEKPITGLLDGNGEYTLTYEDNEGDKMLVGDVPWQMFVSSVKRLRVIKTSEISSALTYGNGKQEKMRR
B5: A. thaliana indole-3-acetic acid inducible 4 (IAA4), library prey (protein, UniProt P33077 1-186)
chain: MEKVDVYDELVNLKATELRLGLPGTEETVSCGKSNKRVLPEATEKEIESTGKTETASPPKAQIVGWPPVRSYRKNNVQTKKSESEGQGNYVKVSMDGAPYLRKIDLTMYKQYPELMKSLENMFKFSVGEYFEREGYKGSDFVPTYEDKDGDWMLVGDVPWEMFVSSCKRLRIMKGSEVKGLGCGGL
B6: ATCKA2 (AT3G50000), library prey (protein, UniProt Q08466 1-403)
chain: MHLIFFFSYFLRRYLLLLCAILILRAPLAHSLIPPLTCVNTGTVESDVTGIRFDRCLDTDSLAKISLSTVMSKARVYTDVNVIRPKDYWDYESLNVQWGEQDDYEVVRKVGRGKYSEVFEGINMNNNEKCIIKILKPVKKKKIRREIKILQNLCGGPNIVKLLDVVRDQHSKTPSLIFEYVNSTDFKVLYPTLTDYDIRYYIYELLKALDFCHSQGIMHRDVKPHNVMIDHELRKLRLIDWGLAEFYHPGKEYNVRVASRYFKGPELLVDLQDYDYSLDMWSLGCMFAGMIFRKEPFFYGHDNQDQLVKIAKVLGTDELNAYLNKYQLELDTQLEALVGRHSRKPWSKFINADNRHLVSPEAIDYLDKLLRYDHQDRLTAKEAMAHPYFAQVRAAESSRMRTQ
B7: IAA11 (AT4G28640), library prey (protein, UniProt Q38829 1-246)
chain: MEGGSASGSASALSNDENLVVSCEDSSSPIGNELELGLTLSLGRKGYRDCRVYADDSSSSSSSSSLSRASVIAGIKRTADSMAATSGQVVGWPPIRTYRMNSMVNQAKASATEDPNLEISQAVNKNRSDSTKMRNSMFVKVTMDGIPIGRKIDLNAHKCYESLSNTLEEMFLKPKLGSRTLETDGHMETPVKILPDGSSGLVLTYEDKEGDWMLVGDVPWGMFIGSVRRLRIMKTSEATGKAQMIL
B8: A. thaliana indole-3-acetic acid inducible 28 (IAA28), library prey (protein, UniProt Q9XFM0 1-175)
chain: MEEEKRLELRLAPPCHQFTSNNNINGSKQKSSTKETSFLSNNRVEVAPVVGWPPVRSSRRNLTAQLKEEMKKKESDEEKELYVKINMEGVPIGRKVNLSAYNNYQQLSHAVDQLFSKKDSWDLNRQYTLVYEDTEGDKVLVGDVPWEMFVSTVKRLHVLKTSHAFSLSPRKHGKE
B9: IAA20 (AT2G46990), library prey (protein, UniProt O24410 1-175)
chain: MGRGRSSSSSSIESSSKSNPFGASSSTRNLSTDLRLGLSFGTSSGTQYFNGGYGYSVAAPAVEDAEYVAAVEEEEENECNSVGSFYVKVNMEGVPIGRKIDLMSLNGYRDLIRTLDFMFNASILWAEEEDMCNEKSHVLTYADKEGDWMMVGDVPWEMFLSTVRRLKISRANYHY
B10: IAA19 (AT3G15540), library prey (protein, UniProt O24409 1-197)
chain: MEKEGLGLEITELRLGLPGRDVAEKMMKKRAFTEMNMTSSGSNSDQCESGVVSSGGDAEKVNDSPAAKSQVVGWPPVCSYRKKNSCKEASTTKVGLGYVKVSMDGVPYLRKMDLGSSQGYDDLAFALDKLFGFRGIGVALKDGDNCEYVTIYEDKDGDWMLAGDVPWGMFLESCKRLRIMKRSDATGFGLQPRGVDE
B11: IAA13 (AT2G33310), library prey (protein, UniProt Q38831 1-247)
chain: MITELEMGKGESELELGLGLSLGGGTAAKIGKSGGGGAWGERGRLLTAKDFPSVGSKRAADSASHAGSSPPRSSSQVVGWPPIGSHRMNSLVNNQATKSAREEEEAGKKKVKDDEPKDVTKKVNGKVQVGFIKVNMDGVAIGRKVDLNAHSSYENLAQTLEDMFFRTNPGTVGLTSQFTKPLRLLDGSSEFVLTYEDKEGDWMLVGDVPWRMFINSVKRLRVMKTSEANGLAARNQEPNERQRKQPV
B12: A. thaliana indole-3-acetic acid inducible 2 (IAA2), library prey (protein, UniProt P49678 1-174)
chain: MAYEKVNELNLKDTELCLGLPGRTEKIKEEQEVSCVKSNNKRLFEETRDEEESTPPTKTQIVGWPPVRSSRKNNNSVSYVKVSMDGAPYLRKIDLKTYKNYPELLKALENMFKVMIGEYCEREGYKGSGFVPTYEDKDGDWMLVGDVPWDMFSSSCKRLRIMKGSDAPALDSSL
B13: AGL15 (AT5G13790), library prey (protein, UniProt Q38847 1-268)
chain: MGRGKIEIKRIENANSRQVTFSKRRSGLLKKARELSVLCDAEVAVIVFSKSGKLFEYSSTGMKQTLSRYGNHQSSSASKAEEDCAEVDILKDQLSKLQEKHLQLQGKGLNPLTFKELQSLEQQLYHALITVRERKERLLTNQLEESRLKEQRAELENETLRRQVQELRSFLPSFTHYVPSYIKCFAIDPKNALINHDSKCSLQNTDSDTTLQLGLPGEAHDRRTNEGERESPSSDSVTTNTSSETAERGDQSSLANSPPEAKRQRFSV
B14: JAZ2, cloned prey (protein, UniProt Q9S7M2 1-249)
chain: MSSFSAECWDFSGRKPSFSQTCTRLSRYLKEKGSFGDLSLGMTCKPDVNGGSRQPTMMNLFPCEASGMDSSAGQEDIKPKTMFPRQSSFSSSSSSGTKEDVQMIKETTKSVKPESQSAPLTIFYGGRVMVFDDFSAEKAKEVIDLANKGSAKSFTCFTAEVNNNHSAYSQKEIASSPNPVCSPAKTAAQEPIQPNPASLACELPIARRASLHRFLEKRKDRITSKAPYQIDGSAEASSKPTNPAWLSSR

Biological target: T1, TOPLESS amino-terminal region (TPL-N), bait (A. thaliana)
Assay: two-hybrid; library screen (Y2H-seq): PJ69-4α bait strain transformed with the A. thaliana AT7 cDNA prey library; SD-Leu-Trp-His + 5 mM 3-AT; preys identified by Sanger sequencing of colonies, qPCR and NGS of pooled prey inserts, against an EMPTY bait screen or the library

Row | binding | Molecule
1 | binds | IAA17 (AT1G04250), library prey (from UniProt P93830 1-229)
2 | binds | AGL21 (AT4G37940), library prey (from UniProt Q9SZJ6 1-228)
3 | binds | B1
4 | binds | B2
5 | binds | B3
6 | binds | B4
7 | binds | B5
8 | no binding | B6
9 | binds | B7
10 | binds | B8
11 | binds | B9
12 | binds | B10
13 | binds | B11
14 | binds | B12
15 | binds | B13

Biological target: Novel Interactor of JAZ (NINJA), bait (A. thaliana) (UniProt Q9SV55)
Assay: two-hybrid; binary Y2H, GAL4 system, S. cerevisiae PJ69-4α co-transformed with bait (GAL4 DBD) and prey (GAL4 AD); 30°C; growth on SD-Leu-Trp-His against SD-Leu-Trp

Row | binding | Molecule
16 | binds | PPD1, cloned prey (from UniProt Q7XA73 1-313)
17 | binds | B14
